Laboratory results from the supplement of paper PMC4996465.
Structures can show the parent of a compound that is named as a salt. Viability of KB3-1 and Nalm-6 cells after 48 h of drug alone (CellTiter-Glo), 11 doses over about 4.5 log units. % of DMSO wells, lower = more cell loss; AC50 from the fitted curve, lower = more potent. No active / inactive call. Nalm-6 was screened in two runs. AC50 is listed only for well-fitted inhibitory curves. KB3-1 is a HeLa-derived carcinoma line, Nalm-6 a B-cell precursor leukaemia line.

What was measured:
KB3-1 [1] = assay: viability (% of DMSO control); higher = more viable cells
Experimental: (§1)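 Eleven-dose screen of the NCATS MIPE 3 library on cells without co-treatment; CellTiter-Glo after 48 h, as % of DMSO wells.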

Nalm-6 [2] = assay: as above
Experimental: as §1

KB3-1 [3] = assay: log AC50 of viability decrease (48 h) (log10 M); higher = less potent
Experimental: (§2)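 Eleven-dose screen of the NCATS MIPE 3 library on cells without co-treatment; CellTiter-Glo after 48 h. AC50 from the curve fit; only inhibitory curves of the better fit classes are listed.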

Nalm-6 [4] = assay: as above
Experimental: as §2

O=C1Nc2ccc(Cl)cc2[C@@](C#CC2CC2)(C(F)(F)F)O1 [Efavirenz]
Conditions | log AC50 of viability decrease | viability [%]
KB3-1 [1], 0.00156 µM | – | 108
KB3-1 [1], 0.00468 µM | – | 109
KB3-1 [1], 0.014 µM | – | 106
KB3-1 [1], 0.0421 µM | – | 109
KB3-1 [1], 0.126 µM | – | 110
KB3-1 [1], 0.379 µM | – | 112
KB3-1 [1], 1.14 µM | – | 101
KB3-1 [1], 3.41 µM | – | 105
KB3-1 [1], 10.2 µM | – | 88.5
KB3-1 [1], 30.7 µM | – | 90.6
KB3-1 [1], 92.2 µM | – | 4.4
Nalm-6 [2], run: 1, 0.00156 µM | – | 115
Nalm-6 [2], run: 1, 0.00468 µM | – | 114
Nalm-6 [2], run: 1, 0.014 µM | – | 113
Nalm-6 [2], run: 1, 0.0421 µM | – | 117
Nalm-6 [2], run: 1, 0.126 µM | – | 107
Nalm-6 [2], run: 1, 0.379 µM | – | 113
Nalm-6 [2], run: 1, 1.14 µM | – | 105
Nalm-6 [2], run: 1, 3.41 µM | – | 114
Nalm-6 [2], run: 1, 10.2 µM | – | 97.2
Nalm-6 [2], run: 1, 30.7 µM | – | 72.6
Nalm-6 [2], run: 1, 92.2 µM | – | 3.34
Nalm-6 [2], run: 2, 0.00156 µM | – | 97.3
Nalm-6 [2], run: 2, 0.00468 µM | – | 93.1
Nalm-6 [2], run: 2, 0.014 µM | – | 103
Nalm-6 [2], run: 2, 0.0421 µM | – | 103
Nalm-6 [2], run: 2, 0.126 µM | – | 110
Nalm-6 [2], run: 2, 0.379 µM | – | 99.9
Nalm-6 [2], run: 2, 1.14 µM | – | 104
Nalm-6 [2], run: 2, 3.41 µM | – | 105
Nalm-6 [2], run: 2, 10.2 µM | – | 91.3
Nalm-6 [2], run: 2, 30.7 µM | – | 80.2
Nalm-6 [2], run: 2, 92.2 µM | – | 2.84
Nalm-6 [4], run: 1 | -4.42 | –
Nalm-6 [4], run: 2 | -4.37 | –

Conditions | log AC50 of viability decrease
KB3-1 [3] | -4.32

Nc1ccccc1NC(=O)c1ccc(CNC(=O)OCc2cccnc2)cc1 [Entinostat]
Conditions | log AC50 of viability decrease | viability [%]
KB3-1 [1], 0.00078 µM | – | 99.9
KB3-1 [1], 0.00234 µM | – | 104
KB3-1 [1], 0.00702 µM | – | 111
KB3-1 [1], 0.0211 µM | – | 112
KB3-1 [1], 0.0632 µM | – | 106
KB3-1 [1], 0.19 µM | – | 102
KB3-1 [1], 0.569 µM | – | 84
KB3-1 [1], 1.71 µM | – | 66.9
KB3-1 [1], 5.12 µM | – | 61.7
KB3-1 [1], 15.4 µM | – | 57.7
KB3-1 [1], 46.1 µM | – | 24.4
Nalm-6 [2], run: 1, 0.00078 µM | – | 113
Nalm-6 [2], run: 1, 0.00234 µM | – | 114
Nalm-6 [2], run: 1, 0.00702 µM | – | 123
Nalm-6 [2], run: 1, 0.0211 µM | – | 131
Nalm-6 [2], run: 1, 0.0632 µM | – | 119
Nalm-6 [2], run: 1, 0.19 µM | – | 105
Nalm-6 [2], run: 1, 0.569 µM | – | 72.5
Nalm-6 [2], run: 1, 1.71 µM | – | 21.1
Nalm-6 [2], run: 1, 5.12 µM | – | 8.9
Nalm-6 [2], run: 1, 15.4 µM | – | 8.66
Nalm-6 [2], run: 1, 46.1 µM | – | 3.6
Nalm-6 [2], run: 2, 0.00078 µM | – | 106
Nalm-6 [2], run: 2, 0.00234 µM | – | 108
Nalm-6 [2], run: 2, 0.00702 µM | – | 117
Nalm-6 [2], run: 2, 0.0211 µM | – | 107
Nalm-6 [2], run: 2, 0.0632 µM | – | 116
Nalm-6 [2], run: 2, 0.19 µM | – | 92.1
Nalm-6 [2], run: 2, 0.569 µM | – | 51.7
Nalm-6 [2], run: 2, 1.71 µM | – | 14.3
Nalm-6 [2], run: 2, 5.12 µM | – | 5.98
Nalm-6 [2], run: 2, 15.4 µM | – | 3.81
Nalm-6 [2], run: 2, 46.1 µM | – | 2.4
Nalm-6 [4], run: 1 | -6.18 | –
Nalm-6 [4], run: 2 | -6.28 | –

Conditions | log AC50 of viability decrease
KB3-1 [3] | -5.23

C#Cc1cccc(Nc2ncnc3cc(OCCOC)c(OCCOC)cc23)c1 [Erlotinib hydrochloride]
Conditions | log AC50 of viability decrease | viability [%]
KB3-1 [1], 0.00078 µM | – | 108
KB3-1 [1], 0.00234 µM | – | 105
KB3-1 [1], 0.00702 µM | – | 103
KB3-1 [1], 0.0211 µM | – | 102
KB3-1 [1], 0.0632 µM | – | 98
KB3-1 [1], 0.19 µM | – | 106
KB3-1 [1], 0.569 µM | – | 104
KB3-1 [1], 1.71 µM | – | 95.4
KB3-1 [1], 5.12 µM | – | 81
KB3-1 [1], 15.4 µM | – | 73.8
KB3-1 [1], 46.1 µM | – | 64.5
Nalm-6 [2], run: 1, 0.00078 µM | – | 120
Nalm-6 [2], run: 1, 0.00234 µM | – | 114
Nalm-6 [2], run: 1, 0.00702 µM | – | 106
Nalm-6 [2], run: 1, 0.0211 µM | – | 107
Nalm-6 [2], run: 1, 0.0632 µM | – | 112
Nalm-6 [2], run: 1, 0.19 µM | – | 118
Nalm-6 [2], run: 1, 0.569 µM | – | 108
Nalm-6 [2], run: 1, 1.71 µM | – | 116
Nalm-6 [2], run: 1, 5.12 µM | – | 92.4
Nalm-6 [2], run: 1, 15.4 µM | – | 70.9
Nalm-6 [2], run: 1, 46.1 µM | – | 53.9
Nalm-6 [2], run: 2, 0.00078 µM | – | 102
Nalm-6 [2], run: 2, 0.00234 µM | – | 108
Nalm-6 [2], run: 2, 0.00702 µM | – | 98.4
Nalm-6 [2], run: 2, 0.0211 µM | – | 94.5
Nalm-6 [2], run: 2, 0.0632 µM | – | 106
Nalm-6 [2], run: 2, 0.19 µM | – | 106
Nalm-6 [2], run: 2, 0.569 µM | – | 112
Nalm-6 [2], run: 2, 1.71 µM | – | 104
Nalm-6 [2], run: 2, 5.12 µM | – | 90.9
Nalm-6 [2], run: 2, 15.4 µM | – | 77.2
Nalm-6 [2], run: 2, 46.1 µM | – | 48.4
Nalm-6 [4], run: 1 | -5.03 | –
Nalm-6 [4], run: 2 | -4.78 | –

Conditions | log AC50 of viability decrease
KB3-1 [3] | -5.33
